Measured values published in the supplement of paper PMC4604168 (melanoma cell lines).
Some of the results follow. Repeats are few or missing, and single values can be far off.

Experiments:
Assay in all cases: cell count relative to DMSO control; melanoma cells; higher = more viable cells
Conditions in all cases: library dose: standard library concentration; 72 h
[1] = test system: G361
[2] = test system: IPC-298
[3] = test system: IST-MEL1
[4] = test system: LB2518-MEL
[5] = test system: LOXIMVI
[6] = test system: MEL-HO
[7] = test system: MZ2-MEL
[8] = test system: MeWo
[9] = test system: RPMI7951
[10] = test system: RVH-421
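Note: cells treated in 1,536-well plates, then fixed and DAPI-stained, with nuclei counted from automated high-throughput microscope images.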

| Compound | cell count [1] [%] | cell count [2] [%] | cell count [3] [%] | cell count [4] [%] | cell count [5] [%] | cell count [6] [%] | cell count [7] [%] | cell count [8] [%] | cell count [9] [%] | cell count [10] [%] |
| --- | --- | --- | --- | --- | --- | --- | --- | --- | --- | --- |
| CC1(C)CCC(c2ccc(Cl)cc2)=C(CN2CCN(c3ccc(C(=O)NS(=O)(=O)c4ccc(N[C@H](CCN5CCOCC5)CSc5ccccc5)c(S(=O)(=O)C(F)(F)F)c4)cc3)CC2)C1 + O=C1NC(=O)/C(=C/c2ccc(-c3ccc(F)cc3O)o2)S1 [AS252424] (first compound 2 µM, partner dose 5 µM) | 62.4 | 86.4 | 74.3 | 78.7 | 31.6 | 46.3 | 82.1 | 76.6 | 49.6 | 56.9 |
| Cc1ccc(Nc2nccc(N(C)c3ccc4c(C)n(C)nc4c3)n2)cc1S(N)(=O)=O [Pazopanib] + COc1cc(Nc2ncc(F)c(Nc3ccc4c(n3)NC(=O)C(C)(C)O4)n2)cc(OC)c1OC [Tamatinib] (first compound 2 µM, partner dose 2 µM) | 64.7 | 69.4 | 83.9 | 75.6 | 32 | 78.5 | 76.5 | 67.9 | 40.4 | 87 |
| O=C(/C=C/c1cccnc1)NCCCCC1CCN(C(=O)c2ccccc2)CC1 + NC(=O)c1ccc(N(C(N)=O)c2c(F)cccc2F)nc1-c1ccc(F)cc1F [VX702] (first compound 0.05 µM, partner dose 2 µM) | 4.64 | 37.6 | 64 | 60.4 | 131 | 36.8 | 27.6 | 106 | 64.9 | 32.1 |
| CC1(C)CCC(c2ccc(Cl)cc2)=C(CN2CCN(c3ccc(C(=O)NS(=O)(=O)c4ccc(N[C@H](CCN5CCOCC5)CSc5ccccc5)c(S(=O)(=O)C(F)(F)F)c4)cc3)CC2)C1 + CC(C)CCN1c2nc(Nc3cc(F)c(O)c(F)c3)ncc2N(C)C(=O)C1C [BID1870] (first compound 2 µM, partner dose 1 µM) | 76.6 | 82 | 56 | 84.5 | 38.4 | 30.7 | 90.5 | 65.3 | 43.5 | 26.9 |
| CC1(C)CCC(c2ccc(Cl)cc2)=C(CN2CCN(c3ccc(C(=O)NS(=O)(=O)c4ccc(N[C@H](CCN5CCOCC5)CSc5ccccc5)c(S(=O)(=O)C(F)(F)F)c4)cc3)CC2)C1 + O=C(O)[C@@H]1[O][Sb](=[O])([O][Sb]2(=[O])[O][C@H]([C@H](O)CO)[C@H](O)[C@H](C(=O)O)[O]2)[O][C@H]([C@H](O)CO)[C@@H]1O [stibogluconate] (first compound 2 µM, partner dose 10 µM) | 66.8 | 82.2 | 67.4 | 66.6 | 63.8 | 53.8 | 80.2 | 71.7 | 48.3 | 60.9 |
| Cc1ccc(Nc2nccc(N(C)c3ccc4c(C)n(C)nc4c3)n2)cc1S(N)(=O)=O [Pazopanib] + O=C(O)[C@@H]1[O][Sb](=[O])([O][Sb]2(=[O])[O][C@H]([C@H](O)CO)[C@H](O)[C@H](C(=O)O)[O]2)[O][C@H]([C@H](O)CO)[C@@H]1O [stibogluconate] (first compound 2 µM, partner dose 10 µM) | 86.7 | 68.8 | 87.7 | 75.6 | 97.6 | 81.6 | 73.6 | 91.4 | 85.5 | 82.8 |
| CC1(C)CCC(c2ccc(Cl)cc2)=C(CN2CCN(c3ccc(C(=O)NS(=O)(=O)c4ccc(N[C@H](CCN5CCOCC5)CSc5ccccc5)c(S(=O)(=O)C(F)(F)F)c4)cc3)CC2)C1 + COc1cc(Nc2ncc(F)c(Nc3ccc4c(n3)NC(=O)C(C)(C)O4)n2)cc(OC)c1OC [Tamatinib] (first compound 2 µM, partner dose 2 µM) | 57.1 | 88.5 | 27.1 | 77.9 | 10 | 52.5 | 94.3 | 66.3 | 17.4 | 53.8 |
| Cc1ccc(Nc2nccc(N(C)c3ccc4c(C)n(C)nc4c3)n2)cc1S(N)(=O)=O [Pazopanib] + O=C(O)c1ccc2c(c1)nc(Nc1cccc(Cl)c1)c1ccncc12 [CX4945] (first compound 2 µM, partner dose 2 µM) | 55.8 | 50.3 | 78.5 | 95.7 | 44.3 | 69.2 | 48.5 | 70 | 47 | 94 |
| Cc1ccc(Nc2nccc(N(C)c3ccc4c(C)n(C)nc4c3)n2)cc1S(N)(=O)=O [Pazopanib] + O=S(=O)(c1ccccc1)N(CC(F)(F)F)c1ccc(C(O)(C(F)(F)F)C(F)(F)F)cc1 [T0901317] (first compound 2 µM, partner dose 7 µM) | 72.7 | 77.4 | 89.5 | 87.9 | 72.5 | 90.3 | 83.9 | 77.6 | 67.2 | 119 |
| CC1(C)CCC(c2ccc(Cl)cc2)=C(CN2CCN(c3ccc(C(=O)NS(=O)(=O)c4ccc(N[C@H](CCN5CCOCC5)CSc5ccccc5)c(S(=O)(=O)C(F)(F)F)c4)cc3)CC2)C1 + C=CCn1c(=O)c2cnc(Nc3ccc(N4CCN(C)CC4)cc3)nc2n1-c1cccc(C(C)(C)O)n1 [MK1775] (first compound 2 µM, partner dose 0.1 µM) | 60.2 | 78.5 | 67.8 | 43 | 45.5 | 54 | 105 | 56.6 | 17.4 | 38.9 |
